Here are results for 44 molecules from paper PMC4336329 (PLoS ONE, 2015).

About 2,200 (0.71%) of roughly 310,000 compounds showed an effect of 50% or more. Effects have a minus sign here. This is one part of the list.

Chain of human ether-à-go-go-related gene (hERG) potassium channel (Q12809 whole entry, looked up): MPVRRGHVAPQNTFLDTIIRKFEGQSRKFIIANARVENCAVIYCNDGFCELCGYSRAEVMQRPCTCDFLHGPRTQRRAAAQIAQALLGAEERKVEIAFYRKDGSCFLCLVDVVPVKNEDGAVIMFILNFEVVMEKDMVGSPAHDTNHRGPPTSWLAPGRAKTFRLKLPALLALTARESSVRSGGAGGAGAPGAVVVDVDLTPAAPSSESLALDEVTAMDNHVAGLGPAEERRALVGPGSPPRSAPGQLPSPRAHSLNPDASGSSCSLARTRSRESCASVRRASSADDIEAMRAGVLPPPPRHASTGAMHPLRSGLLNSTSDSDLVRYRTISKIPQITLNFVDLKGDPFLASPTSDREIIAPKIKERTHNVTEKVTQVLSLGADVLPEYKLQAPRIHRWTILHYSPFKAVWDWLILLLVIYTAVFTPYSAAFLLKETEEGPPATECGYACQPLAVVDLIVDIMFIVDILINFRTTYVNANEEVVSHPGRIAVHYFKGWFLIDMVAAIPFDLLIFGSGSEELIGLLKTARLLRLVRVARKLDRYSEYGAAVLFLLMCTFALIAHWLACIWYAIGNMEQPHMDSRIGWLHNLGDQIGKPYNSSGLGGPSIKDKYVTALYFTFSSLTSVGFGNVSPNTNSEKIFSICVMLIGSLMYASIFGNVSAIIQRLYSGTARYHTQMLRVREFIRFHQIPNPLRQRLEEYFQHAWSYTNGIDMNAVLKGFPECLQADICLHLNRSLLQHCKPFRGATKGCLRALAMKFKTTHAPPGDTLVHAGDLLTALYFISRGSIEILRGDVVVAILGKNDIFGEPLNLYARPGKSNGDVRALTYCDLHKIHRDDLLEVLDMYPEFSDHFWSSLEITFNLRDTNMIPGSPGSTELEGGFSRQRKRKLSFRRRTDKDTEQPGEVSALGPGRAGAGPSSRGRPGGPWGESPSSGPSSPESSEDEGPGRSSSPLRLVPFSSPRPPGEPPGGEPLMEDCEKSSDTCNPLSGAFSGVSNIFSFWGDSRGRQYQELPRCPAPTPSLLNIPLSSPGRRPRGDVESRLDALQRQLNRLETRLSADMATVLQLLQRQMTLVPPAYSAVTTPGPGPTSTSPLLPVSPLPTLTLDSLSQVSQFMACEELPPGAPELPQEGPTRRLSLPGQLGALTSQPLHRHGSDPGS

This assay concerns the target human ether-à-go-go-related gene (hERG) potassium channel (human, UniProt Q12809). The experiment in a line: primary screen, population patch clamp on CHO cells stably expressing hERG.
Consider `O=S(=O)(c1cccs1)N1CCN(c2ncccn2)CC1`, for which the “hERG current change (%, negative = inhibition) at 1uM” value is on record as -13.2%.

Regarding `Cc1ccc(NC(=O)CNS(=O)(=O)c2ccc(F)cc2)cc1C`, the “hERG current change (%, negative = inhibition) at 1uM” value amounted to 12.6%.

As to `O=C(NCc1cccc(Cl)c1)c1cccc(C(F)(F)F)c1`, the “hERG current change (%, negative = inhibition) at 1uM” value came to 17.2%.

On to `CCOCCCNC(=O)CCn1ccc2cc(S(=O)(=O)N3CCCC3)ccc21`, for which the “hERG current change (%, negative = inhibition) at 1uM” value turned out to be 16.5%.

As for `CC(/C=C/c1ccccc1)=N\NC(=O)Cn1cncn1`, the “hERG current change (%, negative = inhibition) at 1uM” value was 12.6%.

In the case of `CCOC(=O)Cc1nnc(NC(=O)CC)s1`, the “hERG current change (%, negative = inhibition) at 1uM” value turned out to be 3.85%.

For `Br.C=CCn1c(=N)n(CC(=O)O)c2ccccc21`, the “hERG current change (%, negative = inhibition) at 1uM” value is reported as 10.3%.

Consider `O=CC1=C(c2ccccc2)Oc2ccccc2O1`, for which the “hERG current change (%, negative = inhibition) at 1uM” value stood at 13.3%.

Consider `CCOC(=O)C1(Cc2cccc(OC)c2)CCCN(Cc2nccn2CC)C1` (centres unmarked), for which the “hERG current change (%, negative = inhibition) at 1uM” value is recorded as -13.5%.

As for `O=[N+]([O-])c1ccc(N2CCN(CCO)CC2)c2ncccc12`, the “hERG current change (%, negative = inhibition) at 1uM” value is on record as -3.63%.

Consider `Cc1cc(C(=O)NCCCN2CCOCC2)n(-c2ccccc2)n1`, for which the “hERG current change (%, negative = inhibition) at 1uM” value was found to be 17.4%.

Take `O=C(COC(=O)/C=C/c1cccc(Cl)c1)Nc1cccc(S(=O)(=O)NC2=NCCC2)c1`: the “hERG current change (%, negative = inhibition) at 1uM” value is on record as -3.89%.

`C/C(=N/NC(=O)c1cccs1)c1c(C)[nH]n(-c2nc3ccccc3s2)c1=O`: the “hERG current change (%, negative = inhibition) at 1uM” value is -1.9%.

For the molecule `CN(C)CCn1ccc(O)c(Cc2ccc(Cl)cc2)c1=O`, the “hERG current change (%, negative = inhibition) at 1uM” value is on record as 10.3%.

As for `COc1ccc2c(c1OC)C(=O)OC2Nc1ccc(S(=O)(=O)N=C(N)N)cc1` (centres unmarked), the “hERG current change (%, negative = inhibition) at 1uM” value came to 16.8%.

With `CCOC(=O)C1=C(c2ccccc2)N(C)C(=O)NC1c1ccc(OC(F)F)c(OC)c1` (centres unmarked), the “hERG current change (%, negative = inhibition) at 1uM” value is 17%.

Regarding `CCCCC(=O)NS(=O)(=O)c1ccc(N=NN2CCCCC2)cc1`, the “hERG current change (%, negative = inhibition) at 1uM” value was 6.95%.

On to `OCCN1CCN(Cc2cc(Br)cc(Br)c2O)CC1`, for which the “hERG current change (%, negative = inhibition) at 1uM” value is on record as -22.2%.

On to `COc1ccccc1C(=O)Nc1nc2ccccc2[nH]1`, for which the “hERG current change (%, negative = inhibition) at 1uM” value was found to be 10.9%.

Take `COc1ccc(/C(C)=N/NC(=O)CNC(=O)c2ccncc2)cc1`: the “hERG current change (%, negative = inhibition) at 1uM” value was found to be 7.95%.

In the case of `Cc1ccc2nc(NC(=O)C3CCN(C(=O)c4ccc(F)cc4)CC3)sc2c1`, the “hERG current change (%, negative = inhibition) at 1uM” value is recorded as -8.44%.

Consider `Cl.Clc1ccc2nsnc2c1NC1=NCCN1`, for which the “hERG current change (%, negative = inhibition) at 1uM” value was determined as 1.83%.

For the molecule `CNC(=S)Nc1cc2oc3ccccc3c2cc1OC`, the “hERG current change (%, negative = inhibition) at 1uM” value is listed as 20.5%.

For the molecule `COc1cccc(CN(C)C(=O)CCN(c2ccccc2)S(=O)(=O)c2ccc(C)cc2)c1OC`, the “hERG current change (%, negative = inhibition) at 1uM” value stood at 2.71%.

With `COc1ccc(-c2nc(CSCC(=O)NCCC3=CCCCC3)c(C)o2)cc1OC`, the “hERG current change (%, negative = inhibition) at 1uM” value is reported as -2.02%.

As to `COc1ccc(OC)c(C2=NOC(C(=O)Nc3c(C)n(C)n(-c4ccccc4)c3=O)C2)c1` (centres unmarked), the “hERG current change (%, negative = inhibition) at 1uM” value is reported as 14.2%.

With `Cc1ccc(NC(=O)C2CCN(S(=O)(=O)c3ccc4c(c3)NC(=O)CO4)CC2)cc1C`, the “hERG current change (%, negative = inhibition) at 1uM” value is -9.52%.

Turning to `CCOc1cc(NC(=S)NC)c(OCC)cc1NC(=O)c1cccs1`, the “hERG current change (%, negative = inhibition) at 1uM” value was -5.42%.

As to `CCOC(=O)c1sc(-c2ccc(OC)cc2)cc1N`, the “hERG current change (%, negative = inhibition) at 1uM” value is reported as -4.37%.

As for `Cc1ccc(-c2nnc(C)c(N3CCOCC3)n2)cc1`, the “hERG current change (%, negative = inhibition) at 1uM” value came to 7.09%.

As to `O=C(COC(=O)c1ccc(F)cc1)NC1CC1`, the “hERG current change (%, negative = inhibition) at 1uM” value stood at 12.5%.

As to `O=C1C(Cc2ccccc2)NC(=S)N1Cc1ccccc1` (centres unmarked), the “hERG current change (%, negative = inhibition) at 1uM” value came to 13.6%.

As to `C/C(=C\c1ccc2c(c1)OCO2)C1Nc2cccc3cccc(c23)N1`, the “hERG current change (%, negative = inhibition) at 1uM” value is recorded as 11.2%.

As for `COc1ccccc1NS(=O)(=O)c1ccc(N/N=C/c2c(C)nn(-c3ccccc3)c2N2CCCC2)c([N+](=O)[O-])c1`, the “hERG current change (%, negative = inhibition) at 1uM” value is -1.38%.

For the molecule `Cc1ccc(NC(=O)c2cccc(F)c2)cc1S(=O)(=O)N1CCCCCC1`, the “hERG current change (%, negative = inhibition) at 1uM” value came out at 11.7%.

Consider `Cc1cc(NC(=O)c2cc(-c3ccco3)on2)no1`, for which the “hERG current change (%, negative = inhibition) at 1uM” value was -0.508%.

In the case of `COc1ccc(C(=O)C2CCCN(C(=O)c3csc(C(C)=O)c3)C2)c(C)c1` (centres unmarked), the “hERG current change (%, negative = inhibition) at 1uM” value was found to be 10.1%.

Regarding `COc1ccc(S(=O)(=O)n2cccc2)cc1`, the “hERG current change (%, negative = inhibition) at 1uM” value worked out at 16.6%.

Turning to `Cc1ccc(-c2noc(CCC(=O)NCCc3ccccc3Cl)n2)cc1`, the “hERG current change (%, negative = inhibition) at 1uM” value is on record as 13.1%.

Turning to `C[C@@H]1CC=C[C@H]2[C@H]1C(=O)N(Cc1ccccc1)[C@H]2c1ccc(C(F)(F)F)cc1`, the “hERG current change (%, negative = inhibition) at 1uM” value turned out to be 15.5%.

With `COC(=O)[C@@H]1CC[C@H](C)[C@@H](c2ccc(C)cc2)N1C(=O)c1ccc(/C=N/OCC[C@@H]2C=C[C@H](OC(C)=O)[C@@H](COC(C)=O)O2)cc1`, the “hERG current change (%, negative = inhibition) at 1uM” value amounted to 11.3%.

As for `COc1ccc(NC(=O)C2CCCN(C(=O)c3ccc(Cl)cc3)C2)cc1S(=O)(=O)N(C)C` (centres unmarked), the “hERG current change (%, negative = inhibition) at 1uM” value was determined as 0.0339%.

For the molecule `CCCCN1C(=O)NC(NC(=O)c2ccco2)(C(F)(F)F)C1=O` (centres unmarked), the “hERG current change (%, negative = inhibition) at 1uM” value worked out at 3.23%.

With `COc1ccc(NC(=O)CS(=O)(=O)Cc2nc(-c3ccc(C)cc3)oc2C)cc1`, the “hERG current change (%, negative = inhibition) at 1uM” value is listed as -2.62%.
